In PubChem BioAssay AID1240 (Sanford-Burnham Center for Chemical Genomics, 2008) one finds displacement data, which are given here for one molecule.

Among all 50,000 compounds or so, about 800 (1.6%) showed an effect of 50% or more. The list shows a part of the results.

This test addresses Bcl-2-like protein 10 (Homo sapiens) (UniProt Q9HD36). The test can be described thus: Phenotype converters, Bcl-B/TR3 peptide binding displacement, primary biochemical FP (AID 1240).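 Note: 0% = Bcl-B with tracer peptide and DMSO and 100% = tracer peptide lacking Bcl-B.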 As to conditions: GST-Bcl-B / FITC-TR3 peptide fluorescence polarization; stronger effect = higher value; compound at 3.75 mg/L.
Sequence of UniProt Q9HD36 (Q9HD36 whole entry, looked up): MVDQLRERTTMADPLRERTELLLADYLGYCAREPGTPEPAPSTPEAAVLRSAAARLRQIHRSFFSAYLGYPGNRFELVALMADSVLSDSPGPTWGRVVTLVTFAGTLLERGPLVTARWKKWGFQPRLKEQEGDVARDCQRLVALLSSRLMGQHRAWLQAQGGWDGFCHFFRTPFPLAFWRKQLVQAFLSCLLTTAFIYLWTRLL
`COc1cc(/C=C2/C(=O)NN(c3ccc(Cl)cc3)C2=O)cc(Br)c1O` showed a displacement of 17.8%.
